# Results taken from PMC6212790.
# The list shows a part of the results. At the low end of the ranking the order means little.
# Molecular target: T1, GST-Rok-C97-191 (UniProt O34857)
# T1 sequence: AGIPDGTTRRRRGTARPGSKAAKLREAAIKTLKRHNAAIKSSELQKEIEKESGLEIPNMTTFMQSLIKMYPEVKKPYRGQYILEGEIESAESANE
# Assay: protein binding microarray;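 note: rank score from −0.5 (least bound) to 0.5 (best bound)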
# Conditions: Rok is a gene silencer of Bacillus subtilis; high values mean tight binding; most listed sequences are background and not binding sites; double strand, one strand shown
row,Sequence,binding signal
1,CACTACTC,-0.0277 E-score
2,CTACCAAC,0.235 E-score
3,ATCCTAAC,0.1 E-score
4,ATTCGGCA,0.0659 E-score
5,TAAAGATA,0.27 E-score
6,GCCAGATA,-0.192 E-score
7,ACGGTTGA,0.0453 E-score
8,CCACGCAA,-0.0524 E-score
9,CGCATACG,0.114 E-score
10,CAGTTTCG,0.0803 E-score
11,GACAGTTA,0.0912 E-score
12,ACTACGAG,0.171 E-score
13,CAACAGCA,-0.159 E-score
14,ATTTCGGG,-0.161 E-score
15,CAGACATC,-0.232 E-score
16,ACAAAATC,0.16 E-score
17,TACATCTA,0.369 E-score
18,TAAGCGAA,-0.154 E-score
19,ATTGCTAG,0.266 E-score
20,ATCCTTTC,0.0586 E-score
21,CATGTCCG,0.0905 E-score
22,CGTATACC,0.00242 E-score
23,GGGAACAC,-0.137 E-score
24,GAACGGAC,-0.373 E-score
25,AACTTTCC,0.045 E-score

row,Sequence,binding signal
1,CTCTATAC,0.143 E-score
2,ACGTCGAA,0.096 E-score
3,ATGGCCTC,-0.182 E-score
4,AGTGACAC,-0.0326 E-score
5,AACATTAC,0.127 E-score
6,AAATTTGA,0.0368 E-score
7,ACCTCACA,0.0491 E-score
8,GAGGCGAC,-0.0191 E-score
9,GATCCGAC,-0.0267 E-score
10,CCTACAGG,-0.0994 E-score
11,AAATATTA,0.355 E-score
12,AGTATTTC,0.311 E-score
13,CTCCTAAC,0.0286 E-score
14,ACTAACTA,0.367 E-score
15,TCGCCTCA,-0.0614 E-score
16,ATCCATCC,0.0617 E-score
17,TAACCCTA,-0.0278 E-score
18,AACTCCTC,-0.0635 E-score
19,CTAACAAC,0.0204 E-score
20,AGCTCACG,-0.0298 E-score
21,CCGTCGAG,-0.248 E-score
22,GCTCAAAC,-0.0747 E-score
23,CACCTGTA,0.0434 E-score
24,CTGATAAC,0.0625 E-score
25,GACGACGC,-0.0813 E-score

row,Sequence,binding signal
1,CAAGCTTC,-0.0593 E-score
2,CAATAAGA,-0.045 E-score
3,ACGGGTGA,-0.0241 E-score
4,CATATTTC,0.245 E-score
5,CATGACTA,0.0832 E-score
6,ATCTTTGA,0.0195 E-score
7,AAGCCAAC,-0.171 E-score
8,CGTTACTA,0.299 E-score
9,CAAGAGAG,-0.105 E-score
10,GCTTTGTA,0.225 E-score
11,CTCATTGC,-0.158 E-score
12,AACTGACA,-0.0326 E-score
13,GTAGGGGA,-0.235 E-score
14,GGCATGGA,-0.144 E-score
15,CGTGTTCA,-0.172 E-score
16,AGGAACTG,-0.0105 E-score
17,AGGTTAAA,0.105 E-score
18,AGTCGGTG,-0.00548 E-score
19,TACCTGGA,-0.00728 E-score
20,AGAGAACT,0.0929 E-score
21,CTCCTATA,0.209 E-score
22,ATCTAGGG,-0.0226 E-score
23,GCGAGACA,-0.14 E-score
24,CTAACCCC,-0.289 E-score
25,ATGGGAGG,-0.213 E-score

row,Sequence,binding signal
1,ACAAGAGA,0.0565 E-score
2,AAGCATCT,-0.187 E-score
3,CCATTAAC,0.116 E-score
4,GTATTTGA,0.0326 E-score
5,ATGCGATC,-0.0839 E-score
6,AGTGAAAC,-0.0501 E-score
7,AGTTCTTG,-0.0583 E-score
8,CGTGGTCA,-0.0431 E-score
9,TCAAGCGA,-0.187 E-score
10,ACCCAGTC,-0.0583 E-score
11,TATATATA,0.454 E-score
12,TGTTGTAA,0.179 E-score
13,ACCGGCTA,-0.0516 E-score
14,CGAAGCTA,0.0414 E-score
15,AATTAAGT,0.233 E-score
16,AGTCTCTA,0.0188 E-score
17,ACATTTTA,0.303 E-score
18,ATGGTAAA,0.23 E-score
19,GTCGCGGA,-0.131 E-score
20,ACAAGCCT,-0.0979 E-score
21,AGGCAGCC,-0.306 E-score
22,AAGAGAAG,0.051 E-score
23,CATCGAGC,0.0525 E-score
24,CCCCACCC,-0.296 E-score
25,ACCAACGG,-0.101 E-score

row,Sequence,binding signal
1,TAACGCTA,-0.0327 E-score
2,ACCAATTC,0.132 E-score
3,AACATCAC,0.0103 E-score
4,GAGAATTA,0.226 E-score
5,GAAATATC,0.258 E-score
6,CCTAGAGG,-0.0881 E-score
7,CCAATGGA,0.133 E-score
8,GCATTCGA,-0.00105 E-score
9,AGTTGCCC,-0.0628 E-score
10,ACACCTGG,-0.101 E-score
11,AATTATTC,0.163 E-score
12,TAGACCGA,0.124 E-score
13,CAGCCGGA,-0.17 E-score
14,CCATCCAG,-0.131 E-score
15,CAAGCATA,0.0578 E-score
16,TATGAAAA,-0.0337 E-score
17,CGCACCCC,-0.388 E-score
18,CACCATAG,0.0443 E-score
19,GAAACACA,0.0119 E-score
20,CATTAATG,0.271 E-score
21,ACATCGCC,-0.163 E-score
22,GATACAGA,-0.145 E-score
23,AGGCGCCC,-0.279 E-score
24,AACAGCGC,-0.166 E-score
25,CAAAGGCC,-0.258 E-score

row,Sequence,binding signal
1,CAAGCCTA,0.00707 E-score
2,AAGCAATA,0.114 E-score
3,AAGTACGT,0.209 E-score
4,ACGTCTAC,-0.02 E-score
5,CTGCGGCC,-0.323 E-score
6,AGGCAGTA,0.186 E-score
7,CCGACGGA,-0.091 E-score
8,GAATTTCA,0.087 E-score
9,CCGATCAA,0.0254 E-score
10,GACTAGAA,0.206 E-score
11,GGATAGAA,0.195 E-score
12,TTCAACAA,0.0826 E-score
13,TACGTGGA,-0.126 E-score
14,CGCCCCGA,-0.148 E-score
15,GGTTTGCA,0.0352 E-score
16,ACCTACCC,0.0333 E-score
17,AAGACAAG,-0.0755 E-score
18,AGCAATTA,0.303 E-score
19,ACAATTGA,0.128 E-score
20,AGTCTCTG,-0.02 E-score
21,TAGGCCCA,-0.161 E-score
22,GGTAAGTA,0.205 E-score
23,AAAGGTTC,-0.0274 E-score
24,ACCTCGCT,-0.148 E-score
25,CAGTAGAC,-0.106 E-score

row,Sequence,binding signal
1,GCACCTAA,-0.129 E-score
2,ACACAGTC,-0.101 E-score
3,AACTTAGG,0.11 E-score
4,TATCCTAA,0.16 E-score
5,CCAAATCG,0.0114 E-score
6,CCCCTCCC,-0.298 E-score
7,ATGGGTTA,0.141 E-score
8,CCGGACGC,-0.24 E-score
9,CAGCGCCC,-0.333 E-score
10,GGCGTTAA,-0.109 E-score
11,AGCCAAGA,-0.285 E-score
12,AGCCCCCT,-0.435 E-score
13,CCCAGTGC,-0.307 E-score
14,AGTGTTAC,0.271 E-score
15,GTCTCCCA,-0.173 E-score
16,GAGATCAC,-0.00408 E-score
17,CGGCGTGC,-0.187 E-score
18,CATAGCAG,-0.00645 E-score
19,CCGGCAGG,-0.169 E-score
20,CCCCGACA,-0.248 E-score
21,AAGCAGAC,-0.102 E-score
22,CGTTTATC,0.231 E-score
23,CTTTGGTA,-0.026 E-score
24,ATCGAAAT,0.291 E-score
25,AACTAAGT,0.23 E-score

row,Sequence,binding signal
1,GTTCGAGA,0.0819 E-score
2,AAACCACT,-0.0924 E-score
3,CGCTCAAA,-0.126 E-score
4,ACATGATG,0.0243 E-score
5,AATGAAGG,-0.169 E-score
6,CAGTTTAG,0.0289 E-score
7,ATCAACTA,0.213 E-score
8,GCACAACC,-0.119 E-score
9,AACGAGCC,-0.166 E-score
10,CCTAGAAC,0.115 E-score
11,CGGGGGAA,-0.336 E-score
12,GAGGTAGC,-0.122 E-score
13,GTTACGGA,-0.07 E-score
14,GCACGACA,-0.0862 E-score
15,ATAGTGTC,0.172 E-score
16,AGAGTTGG,0.0159 E-score
17,CTGCACCA,-0.0332 E-score
18,CGAACGTC,-0.213 E-score
19,ATTAATGG,0.0311 E-score
20,ACCGGAGA,0.0332 E-score
21,CCGGTACA,0.0693 E-score
22,GTAACCAC,0.124 E-score
23,AGTGGCGA,-0.112 E-score
24,CCTTAGTC,-0.0143 E-score
25,CGCCGGAC,-0.232 E-score

row,Sequence,binding signal
1,ACCGAACG,-0.0786 E-score
2,AGCTGAAT,-0.0968 E-score
3,ACCCCTTA,-0.121 E-score
4,GTCATGGA,-0.0152 E-score
5,GAAAACTC,-0.0271 E-score
6,CGACGGGA,-0.178 E-score
7,AATTCTGC,0.122 E-score
8,CGAACGCG,0.0126 E-score
9,TGCAGGAA,-0.0299 E-score
10,CTCATCTA,-0.0161 E-score
11,AAGGTTGC,-0.232 E-score
12,ACGTTCAC,0.0772 E-score
13,CCGTTCCC,-0.197 E-score
14,CAGAGACC,-0.168 E-score
15,CACCCCAA,0.0157 E-score
16,GGTTCAAC,-0.0853 E-score
17,TGGTACAA,0.232 E-score
18,CTAGCTTA,0.235 E-score
19,AGCATCCA,-0.145 E-score
